Measured values reported in PubChem BioAssay AID360 (National Center for Advancing Translational Sciences (NCATS), 2006).
Among all 48,000 compounds or so, about 550 (1.1%) were called active. Not shown: some 4% with an inconclusive outcome. Rule as the data show it: active = potency below about 15 µM; inconclusive = mostly about 16 µM to 33 µM; inactive = weaker than that. The list shows a part of the results.

target: Lysosomal acid glucosylceramidase (Homo sapiens) (UniProt P04062); test: Glucocerebrosidase; details: purified enzyme, resorufin glucoside fluorescence (screen aimed at inhibitors), 20 min; series mostly up to 77 µM;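 also: the screen sought inhibitors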
Sequence of UniProt P04062 (P04062 whole entry, looked up): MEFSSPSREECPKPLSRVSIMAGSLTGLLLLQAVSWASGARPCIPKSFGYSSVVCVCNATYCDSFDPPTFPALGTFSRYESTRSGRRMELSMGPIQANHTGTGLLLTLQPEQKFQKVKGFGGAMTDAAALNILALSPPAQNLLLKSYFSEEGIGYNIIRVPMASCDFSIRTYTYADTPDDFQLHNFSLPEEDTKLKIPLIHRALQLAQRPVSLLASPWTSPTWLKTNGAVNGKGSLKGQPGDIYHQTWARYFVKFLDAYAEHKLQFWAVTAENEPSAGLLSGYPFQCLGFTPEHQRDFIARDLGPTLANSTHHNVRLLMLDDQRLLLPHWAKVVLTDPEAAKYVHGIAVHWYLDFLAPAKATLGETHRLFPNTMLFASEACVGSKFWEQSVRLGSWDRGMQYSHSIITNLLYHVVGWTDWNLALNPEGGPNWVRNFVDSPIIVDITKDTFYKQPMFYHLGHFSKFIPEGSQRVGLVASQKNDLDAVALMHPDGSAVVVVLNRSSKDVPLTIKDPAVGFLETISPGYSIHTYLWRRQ
Summary of the method: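 Wild-type enzyme at 0.2 nM final in 50mM citric acid/KH2PO4, 10mM sodium taurocholate, 0.01% tween-20, pH 5.9, with resorufin beta-D-glucopyranoside at 30 uM final. Compounds titrated, 20 min at RT, red fluorescence read; AC50 from titration.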
Potency is read from the fitted curve at half-maximal effect.

Potency, inactive:
CCn1cc(C(=O)NCc2cccs2)c(=O)c2cc(S(=O)(=O)N3CCOCC3)ccc21 > 76.9 µM
O=C(NCc1ccccc1)c1cc(S(=O)(=O)N2CCC3(CC2)OCCO3)ccc1F > 76.9 µM
N#CCCN(CCC#N)C(=O)COc1ccc(Cl)cc1Cl > 76.9 µM
CC1Cc2ccccc2N1C(=O)Cc1cccs1 (stereo unspecified) > 76.9 µM
CCOc1ccc2nc(NC(=O)COC)sc2c1 > 76.9 µM
CCN1C(=O)N(CC)C2C1N(C(C)=O)C(=O)N2C(C)=O (stereo unspecified) > 76.9 µM
CCOc1cccc(-c2cc(=O)[nH][nH]2)c1 > 76.9 µM
NC(=O)CSc1nnc(Cn2c(=O)sc3ccccc32)n1-c1cccc(Cl)c1 > 76.9 µM
CCC(C)(C)NC(=O)C(c1ccc(F)cc1)N(Cc1ccco1)C(=O)c1cnccn1 (stereo unspecified) > 76.9 µM
O=C(c1nc(-c2ccccc2)n(-c2ccccc2)n1)N1CCN(S(=O)(=O)c2ccccc2)CC1 > 76.9 µM
COc1ccc(OC)c(C2/C(=C(\O)c3c(C)nc4ccccn34)C(=O)C(=O)N2CCCN(C)C)c1 (stereo unspecified) > 76.9 µM
CCN(CC)CCCC(C)NC1=NCCCCC1 (stereo unspecified) > 76.9 µM
COc1ccc(OC)c(C(c2nnnn2CC2CCCO2)N2CCN(C3CCCC3)CC2)c1 (stereo unspecified) > 76.9 µM
CCCNC(=O)c1[nH]c(C)c(C(C)=O)c1C > 76.9 µM
CCC(C)(C)NC(=O)C(c1cccc(OC)c1)N(C(=O)c1ccn[nH]1)c1cccc(OC)c1 (stereo unspecified) > 76.9 µM
O=C(NCc1ccc(Cl)cc1)c1cc(-c2cccs2)on1 > 76.9 µM
CCOCCCNC(=O)C(c1ccc(OC)cc1)N(Cc1ccc2c(c1)OCO2)C(=O)CNC(C)=O (stereo unspecified) > 76.9 µM
Cc1oc(-c2cccc(Cl)c2)nc1CN1CCC(C(=O)NCc2cccnc2)CC1 > 76.9 µM
O=C(COC(=O)c1ccccn1)Nc1cccc(Cl)c1 > 76.9 µM
COC(=O)c1ccc(NC(=O)C2CC(=O)N(c3cc(C)ccc3C)C2)cc1 (stereo unspecified) > 76.9 µM
N#CC(C(=O)c1ccco1)c1ccccn1 (stereo unspecified) > 76.9 µM
O=C(C1=C(O)C(=O)N(Cc2ccccc2)C1c1cccnc1)c1ccco1 (stereo unspecified) > 76.9 µM
O=C(CSc1nnnn1C1CCCCC1)NCc1cccc(C(=O)O)c1 > 76.9 µM
COc1ccccc1-n1c(CNc2c(C)cccc2C)nnc1SCC(=O)N1CCOCC1 > 76.9 µM
Cc1nnc(SCC(=O)N2CCc3ccccc32)s1 > 76.9 µM
CCn1cc(C(=O)NCCCOC)c2cc(OC)c(OC)cc2c1=O > 76.9 µM
COc1cc(-c2nnc(-c3ccc(N4CCOCC4)cc3)o2)cc(OC)c1OC > 76.9 µM
Cc1cc(=O)oc(C)c1C(=O)NCc1c(F)cc(F)cc1F > 76.9 µM
CCC(=O)c1cc(-c2nc3ccccc3n2C)n(C)c1 > 76.9 µM
OC(COc1ccc2ccccc2c1)CN1CCCC1 (stereo unspecified) > 76.9 µM
Cc1cccc(C)c1NC(=O)c1cc(S(=O)(=O)N2CCOCC2)ccc1F > 76.9 µM
CCN1CCN(Cc2c(C)[nH]c3ccc(OC)cc3c2=O)CC1 > 76.9 µM
CCOc1ccc2oc(C(=O)OCC(=O)NC(=O)NC3CCCC3)c(C)c2c1 > 76.9 µM
COc1ccc(-c2nnc(Nc3nc4c(OC)cccc4s3)o2)cc1 > 76.9 µM
Cc1nc(CCNC(=O)Cc2ccccc2)cs1 > 76.9 µM
COc1ccc(C2CC(=O)c3cnc(NC(=O)c4ccccc4OC)nc3C2)c(OC)c1 (stereo unspecified) > 76.9 µM
Fc1ccc(N2CCN(C(c3cccs3)c3nnnn3CCc3ccccc3)CC2)cc1 (stereo unspecified) > 76.9 µM
CSc1nc(N)nc(SC2C=CCCC2)c1C#N (stereo unspecified) > 76.9 µM
Cc1ccc2[nH]c(=O)c(C(c3nnnn3CC3CCCO3)N3CCOCC3)cc2c1 (stereo unspecified) > 76.9 µM
CC(=O)Nc1ccc(C(=O)OCC(=O)NC(=O)NC2CCCCC2)cc1 > 76.9 µM
CCN(CC)CCN1C(=O)C(=O)/C(=C(/O)c2ccncc2)C1c1ccccc1F (stereo unspecified) > 76.9 µM
N#Cc1nc(-c2cccs2)oc1NCc1ccco1 > 76.9 µM
COc1ccc(-n2c(C)cc(C(=O)CSc3nn4c(=O)c(C(C)(C)C)nnc4s3)c2C)cc1 > 76.9 µM
C=CCn1c(=N)n(CC(=O)O)c2ccccc21 > 76.9 µM
COc1ccc2c(c1)C(NC(C)=O)C(=O)N2C (stereo unspecified) > 76.9 µM
CC(C)c1nc(=S)n(-c2ccccc2)[nH]1 > 76.9 µM
COc1ccc(Nc2nccc3c2nnn3C)cc1 > 76.9 µM
CCOC(=O)CSc1n[nH]c(-c2cccnc2)n1 > 76.9 µM
CCN(CC)CCCN1C(=O)C(O)=C(C(=O)c2ccco2)C1c1ccc(OC(C)C)cc1 (stereo unspecified) > 76.9 µM
COCCCn1c(CCC(=O)O)ccc1-c1cccs1 > 76.9 µM
CCOc1ccc(C)cc1S(=O)(=O)NC1CCCCC1 > 76.9 µM
Cn1c(/N=C/c2cc(Cl)ccc2O)nc2ccccc21 > 76.9 µM
Cc1c(C(=O)Nc2ccc(F)cc2)oc2ccc(S(=O)(=O)N3CCC4(CC3)OCCO4)cc12 > 76.9 µM
Cc1ccc(-n2c(SCC(=O)OC(C)C)nnc2-c2cnccn2)cc1 > 76.9 µM
C=CCn1c(SCCC(=O)O)nc2c1c(=O)n(C)c(=O)n2C > 76.9 µM
O=C(O)CCc1ccc(-c2cccs2)n1Cc1ccco1 > 76.9 µM
CC(=O)C1=C(C)NC(=O)NC1c1ccc(OC2CCCC2)cc1 (stereo unspecified) > 76.9 µM
O=C(Cc1c(F)cccc1Cl)Nc1cccnc1 > 76.9 µM
Cc1ccc(C)n1-c1ccc(-c2nnco2)cc1 > 76.9 µM
CCCn1c(C)cc(=O)c2cc(NC(=O)c3ccccn3)ccc21
COc1ccccc1N1CCN(S(=O)(=O)c2ccc3c4c(cccc24)C(=O)N3)CC1 > 76.9 µM
CC1=C(C(=O)Nc2ccccc2)C(c2ccc(C)o2)n2ncnc2N1 (stereo unspecified) > 76.9 µM
CC(C)(C)NC(=O)C(c1ccncc1)N(C(=O)CNC(=O)c1ccco1)c1ccc2c(c1)OCO2 (stereo unspecified) > 76.9 µM
Cc1ccccc1S(=O)(=O)Cc1ccc(C(=O)NCCCN2CCN(C)CC2)o1 > 76.9 µM
CCc1nnc(NC(=O)CCC(=O)N2CCN(Cc3cc(F)ccc3OC)CC2)s1 > 76.9 µM
CCc1c(C)nc(N)n2c(SCC(=O)N3CCCc4ccccc43)nnc12 > 76.9 µM
CC(C)c1ccc(-c2nnn(Cc3nc4ccccc4s3)n2)cc1 > 76.9 µM
CCOC(=O)C1(C(F)(F)F)N=C(N(C)C)OC(N(C)C)=N1 > 76.9 µM
O=c1[nH]c(CSc2ncc(-c3ccc(F)cc3)n2Cc2ccco2)nc2ccccc12 > 76.9 µM
CC(=O)Nc1cc(NC(C)=O)cc(C(=O)NC(C)(C)C)c1 > 76.9 µM
COc1ccc(OCCC(=O)N2CCCCC2)cc1 > 76.9 µM
CCOc1ccc(-c2nnc(-c3ccco3)o2)cc1OCC > 76.9 µM
Cn1c(=O)c2c(ncn2CC(N)=O)n(C)c1=O > 76.9 µM
COc1ccc(C2=NOC(C(=O)NCC(C)C)C2)cc1 (stereo unspecified) > 76.9 µM
CN(C(=O)c1cccc(C#N)c1)c1nnc(-c2cnccn2)s1 > 76.9 µM
CSc1nc(C)c(Oc2ccccc2)c(=O)n1C > 76.9 µM
O=C(NC12CC3CC(CC(C3)C1)C2)N1CC2Cc3cccc(=O)n3C(C2)C1 (stereo unspecified) > 76.9 µM
COC(=O)c1ccc(CSc2nc3ccccc3c(=O)n2-c2cccc(OC)c2)o1 > 76.9 µM
CCOC(=O)NC(=O)CSc1ccccn1 > 76.9 µM
O=C(c1cc2ccccc2o1)N1CCCCCC1 > 76.9 µM
COc1cccc(N2CCN(c3c4c(nc5ncnn35)CCC4)CC2)c1 > 76.9 µM
Cc1ccc(C)c(Cn2nnc3c(=O)[nH]c(C4CCCN(C(=O)C5CCC5)C4)nc32)c1 (stereo unspecified) > 76.9 µM
COc1ccc(C)cc1-n1nnnc1SCC(=O)c1cc(C)n(Cc2ccco2)c1C > 76.9 µM
COCCn1c(SCC(=O)NCc2ccco2)nc2cccnc21 > 76.9 µM
CC(=O)C(C)Oc1ccc2c3c(c(=O)oc2c1)CCCCC3 (stereo unspecified) > 76.9 µM
COc1cccc(Oc2nnnn2-c2ccccc2)c1 > 76.9 µM
O=C1C(c2ccc(F)cc2)N(Cc2ccc3c(c2)OCO3)C(=O)CN1C1CCCC1 (stereo unspecified) > 76.9 µM
COc1ccccc1-n1c(C)nnc1SCC(=O)Nc1cc(C)cc(C)c1 > 76.9 µM
Cc1ccc(C(=O)NC(C)(COc2nonc2C)COc2nonc2C)cc1 > 76.9 µM
Cn1cc(Cl)c(C(=O)N2CCN(c3ncccn3)CC2)n1 > 76.9 µM
Cc1[nH]c(=O)[nH]c(=O)c1S(=O)(=O)N1CCN(c2cccc(Cl)c2)CC1
